Reference: the supplement of paper PMC5919970
Where a name gives a salt, the structure may show the parent alone. Over roughly 2,000 compounds, “fractional viability relative to vehicle” has its median near 0.92; the lowest 2% begin near 0.11. This is one part of the list.

Tested on: TYKNU
Assay: fractional viability relative to vehicle; TYKNU is a high-grade serous ovarian cancer line; higher = less growth inhibition
Conditions: 72 h, genotype: OPA1 knockout (sgOPA1 #2)
Outline: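 TYKNU control cells or lentiCRISPRv2 knockout derivatives were seeded at 500 cells per well into drug-stamped 384-well plates holding a ~2100-compound library at 2 or 10 μM, in duplicate. Cells were grown at 37 °C in 5% CO2 in RPMI 1640 with 10% FBS, and drug treatment lasted 72 h. Viability was read by Cell Titer Glo luminescence. Duplicate treatment wells were averaged and normalised to duplicate control wells from the same plate position.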

Compound | fractional viability (2uM) | fractional viability (10uM)
NC(=O)[C@@H](CCC(F)(F)F)N(Cc1ccc(-c2ncon2)cc1F)S(=O)(=O)c1ccc(Cl)cc1 | 0.85 | 0.744
Cc1[nH]c(/C=C2\C(=O)Nc3ccc(S(=O)(=O)Cc4c(Cl)cccc4Cl)cc32)c(C)c1C(=O)N1CCC[C@@H]1CN1CCCC1 | 0.507 | 0.118
N#CC(=C(/N)Sc1ccccc1N)/C(C#N)=C(\N)Sc1ccccc1N | 1.36 | 1.25
Nc1nc(Nc2ccc(S(N)(=O)=O)cc2)nn1C(=O)c1c(F)cccc1F | 0.664 | 0.778
CC(C)c1onc(-c2c(Cl)cccc2Cl)c1COc1ccc(/C=C/c2cccc(C(=O)O)c2)c(Cl)c1 | 1.07 | 0.861
NC(=O)CCCSc1nc(N)nc(-c2c(Cl)cc3c4c(cccc24)COC3)n1 | 0.868 | 0.815
C=CCN1CCCC1CNC(=O)c1cc2nn[nH]c2cc1OC (stereo not given) [Alizapride HCl] | 0.868 | 0.818
CC(C)(Oc1ccc(C2CC2(Cl)Cl)cc1)C(=O)O (stereo not given) [Ciprofibrate] | 1.04 | 1.02
Cn1cnc(N)c2ncnc1-2 [3-Methyladenine] | 1.15 | 1.1
CCc1cc(/C(C)=N/OCc2ccc(C3CCCCC3)c(C(F)(F)F)c2)ccc1CN1CC(C(=O)O)C1 [BAF312 (Siponimod)] | 0.867 | 0.671
Cc1cc(CS(=O)(=O)c2ccccc2)cc(OCc2ccc(CN3CCC[C@@H]3CO)cc2)c1 | 0.843 | 0.875
CCN(CCCc1ccccc1)CCCc1ccccc1 [Alverine Citrate] | 0.87 | 1.05
COc1cc2c(cc1OC)CN(CCc1ccc(NC(=O)c3cccc4c(=O)c5cccc(OC)c5[nH]c34)cc1)CC2 | 0.772 | 0.955
Clc1ccc(COC(Cn2ccnc2)c2ccc(Cl)cc2Cl)cc1 (stereo not given) [Econazole nitrate] | 1.11 | 0.789
NC(=O)NO [Hydroxyurea] | 1.25 | 1.1
Clc1ccccc1C(c1ccccc1)(c1ccccc1)n1ccnc1 [Clotrimazole] | 0.934 | 0.909
CC(C)(C)c1ccc(S(=O)(=O)NCc2ccc(C(=O)Nc3cccnc3)cc2)cc1 | 0.306 | 0.165
O=S(=O)(O)CCSSCCS(=O)(=O)O [Dimesna] | 1.09 | 1.15
CO[C@H]1C(=O)[C@]2(C)[C@@H](OC)C[C@H]3OC[C@@]3(OC(C)=O)[C@H]2[C@H](OC(=O)c2ccccc2)[C@]2(O)C[C@H](OC(=O)[C@H](O)[C@@H](NC(=O)OC(C)(C)C)c3ccccc3)C(C)=C1C2(C)C [Cabazitaxel] | 0.752 | 0.531
CCCCOc1ccc(CC(=O)NO)cc1 [Bufexamac] | 1.04 | 0.893
Cc1ccc(O)c([C@H](CCN(C(C)C)C(C)C)c2ccccc2)c1 [Tolterodine tartrate] | 0.966 | 0.849
Cc1cc(C)cc(NC(=O)Cc2ccc(OC(C)(C)C(=O)O)cc2)c1 [Efaproxiral Sodium] | 0.919 | 1.03
CCN1/C(=C/C(C)=O)Sc2ccc(OC)cc21 | 0.965 | 0.87
CCCCC(C=O)NC(=O)C(CC(C)C)NC(=O)C(CC(C)C)NC(C)=O (stereo not given) | 0.8 | 0.939
CCCCCCCCCCCCCCCCO [1-Hexadecanol] | 0.985 | 0.861

Compound | fractional viability (2uM) | fractional viability (10uM)
CCOc1ccc(Cc2cc([C@@H]3O[C@H](CO)[C@@H](O)[C@H](O)[C@H]3O)ccc2Cl)cc1 [Dapagliflozin] | 1.01 | 0.974
CN(C)CCN1C(=O)c2cccc3cc(N)cc(c23)C1=O [Amonafide] | 0.909 | 0.627
O=c1cc(CN2CCOCC2)occ1OCCCCCSc1ccnc2cc(C(F)(F)F)ccc12 | 0.828 | 0.915
O[C@@H]1CO[C@H]2[C@@H]1OC[C@@H]2O [Isosorbide] | 1.06 | 0.809
Cc1c(O)cccc1C(=O)N[C@@H](CSc1ccccc1)[C@H](O)CN1C[C@H]2CCCC[C@H]2C[C@H]1C(=O)NC(C)(C)C [Nelfinavir Mesylate] | 1.07 | 0.781
Nc1ccn([C@@H]2O[C@H](CO)[C@@H](O)[C@H]2O)c(=O)n1 [Cytidine] | 0.886 | 1.09
CC(C)NCCCn1c(Sc2cc3c(cc2I)OCO3)nc2c(N)ncnc21 | 0.428 | 0.48
CN(C)CCC(c1ccccc1)c1ccccn1 (stereo not given) [Pheniramine Maleate] | 1.14 | 0.886
COc1ccc2cc1Oc1ccc(cc1)C[C@H]1c3c(cc4c(c3Oc3cc5c(cc3OC)CCN(C)[C@@H]5C2)OCO4)CCN1C [Cepharanthine] | 0.99 | 0.289
NC1=N[C@@]2(c3cc(NC(=O)c4ccc(F)cn4)ccc3F)COC[C@H]2CS1 | 1.08 | 1
Cc1c(OCC(F)(F)F)ccnc1C[S+]([O-])c1nc2ccccc2[nH]1 (stereo not given) [Lansoprazole] | 1.06 | 0.987
O=C1CCc2c(ccc3ccccc23)O1 [Splitomicin] | 0.879 | 0.803
CC[C@@H]1C(=O)N(C)c2cnc(Nc3ccc(C(=O)NC4CCN(C)CC4)cc3OC)nc2N1C1CCCC1 | 0.822 | 0.144
O=S(=O)(N=Cc1c(O)ccc2ccccc12)c1cccs1 | 0.704 | 0.914
CCS(=O)(=O)N1CCC([C@@H](C)n2c(C)c(C(=O)NCc3c(OC)cc(C)[nH]c3=O)c3ccccc32)CC1 | 0.776 | 0.879
Fc1ccc(CNc2ncnc3ccc(F)cc23)cc1 [Spautin-1] | 0.813 | 0.799
CN(C)[C@@H](CCOc1cccc2ccccc12)c1ccccc1 [Dapoxetine HCl] | 1.04 | 0.755
CCCC(CCC)C(=O)O [Valproic acid sodium salt (Sodium valproate)] | 1.05 | 1.01
CCCC(CCC)C(=O)O [Divalproex Sodium] | 0.99 | 1.16
CC(C)c1noc(N2CCC(COc3ccc(-c4ccc(S(C)(=O)=O)cc4)nc3)CC2)n1 | 1.01 | 1
O=C(NC1CCNCC1)c1n[nH]cc1NC(=O)c1c(Cl)cccc1Cl | 0.667 | 0.685
O=CN1CC/C(=C/c2ccc3c(c2)OCO3)C1=O | 0.774 | 0.838
CC[C@H](Nc1ncnc2[nH]cnc12)c1nc2cccc(F)c2c(=O)n1-c1ccccc1 [CAL-101 (Idelalisib, GS-1101)] | 1.06 | 0.992
CC(C)(C)c1cc(/C=C(\C#N)C(N)=S)cc(C(C)(C)C)c1O [Tyrphostin AG 879] | 0.693 | 0.4
CCC(=O)NCC[C@@H]1CCc2ccc3c(c21)CCO3 [Ramelteon] | 1.16 | 0.907

Compound | fractional viability (2uM) | fractional viability (10uM)
COC1=CC(=O)C[C@@H](C)[C@]12Oc1c(Cl)c(OC)cc(OC)c1C2=O [Griseofulvin] | 0.824 | 0.66
NS(=O)(=O)NCCNc1nonc1/C(=N/O)Nc1ccc(F)c(Br)c1 | 0.817 | 0.783
O[C@@H](COc1cccc2ncccc12)CN1CCN(C2c3ccccc3[C@@H]3[C@H](c4ccccc42)C3(F)F)CC1 (stereo not given in full) | 1.2 | 0.742
O=S(=O)(NCCNC/C=C/c1ccc(Br)cc1)c1cccc2cnccc12 | 0.945 | 0.914
COc1ccc(-c2coc3cc(O)cc(O)c3c2=O)cc1 [Biochanin A] | 0.959 | 0.872
COc1ccccc1N1CCN(CCN2C(=O)CC3(CCCC3)CC2=O)CC1 | 1.11 | 0.848
OCC(O)CN1CCN(c2ccccc2)CC1 (stereo not given) [Dropropizine] | 1.09 | 0.815
CN(C)CCC(c1ccc(Cl)cc1)c1ccccn1 (stereo not given) [Chlorpheniramine Maleate] | 0.939 | 1.07
COC1(c2sc3c(N4CCOCC4)nc(-c4cnc(N)nc4)nc3c2C)COC1 | 0.326 | 0.324
CCOC(=O)C1=C(C)NC(C)=C(C(=O)OC)C1c1cccc([N+](=O)[O-])c1 (stereo not given) [Nitrendipine] | 1.17 | 0.89
Fc1ccc2[nH]ccc2c1-c1nc(N2CCOCC2)c2sc(CN3CCN(CC4CC4)CC3)cc2n1 | 0.878 | 0.55
CC(CN1c2ccccc2Sc2ccccc21)N(C)C (stereo not given) [Promethazine HCl] | 1.11 | 0.917
CNC(=O)c1ccccc1Sc1ccc2c(/C=C/c3ccccn3)n[nH]c2c1 [Axitinib] | 1.08 | 0.832
Cc1ccc(NC(=O)Nc2cc(C(F)(F)F)ccc2F)cc1Nc1ccc2c(c1)NC(=O)/C2=C\c1ccc[nH]1 | 0.83 | 0.932
CCOc1cc(N2CCC(O)CC2)ccc1Nc1ncc2c(n1)N(C)c1ccccc1C(=O)N2C | 0.911 | 0.683
O=C(c1ccc(OCCN2CCCCC2)cc1)c1c(-c2ccc(O)cc2)sc2cc(O)ccc12 [Raloxifene HCl] | 1.1 | 1.03
CNC(=O)c1ccc(N2C(=S)N(c3cnc(C#N)c(C(F)(F)F)c3)C(=O)C23CCC3)cc1F | 1.4 | 0.95
O=C(Nc1cccc(Cl)c1)Nc1ncc(CCNc2ncnc3ccsc23)s1 [SNS-314 Mesylate] | 1.21 | 1.09
Nc1ncnc2c1c(-c1cccc(OCc3ccccc3)c1)cn2C1CC(CN2CCCC2)C1 (stereo not given) | 0.947 | 0.248
CN1CCN(c2ccc(C(=O)Nc3n[nH]c4ccc(Cc5cc(F)cc(F)c5)cc34)c(NC3CCOCC3)c2)CC1 [Entrectinib (RXDX-101)] | 0.712 | 0.113
CCc1c(C(=O)NCCc2ccc(N3CCCCC3)cc2)[nH]c2ccc(Cl)cc12 | 0.832 | 1.09
CNC(=O)CN1CCC(Oc2cc3c(Nc4cccc(Cl)c4F)ncnc3cc2OC)CC1 [AZD8931 (Sapitinib)] | 0.982 | 1.18
CCCS(=O)(=O)Nc1ccc(F)c(C(=O)c2c[nH]c3ncc(Cl)cc23)c1F | 1.24 | 0.877
CCN1CCCC1CNC(=O)c1cc(S(=O)(=O)CC)c(N)cc1OC (stereo not given) [Amisulpride] | 1.28 | 0.983
Nc1nc(N)nc(-c2cc(Cl)ccc2Cl)n1 [Irsogladine] | 0.936 | 0.995
